Data set [1] deals with MRSA strain USA300. The data set can be described thus: microbe, parasite or virus in culture. The following applies: DMSO control = 100; for hemolysis at 10 µg/mL / hemolysis at 1 µg/mL: Staphylococcus aureus, Erythrocyte, in Oryctolagus cuniculus.
For data set [2], the system named is MRSA strain USA300. Description: microbe, parasite or virus in culture. The following applies: for activity at 10 µg/mL / activity at 1 µg/mL: Staphylococcus aureus, read-out: Growth; for Growth: DMSO control = 100.

On to `CCCc1cc(C(=O)COc2ccccc2C(=O)OC)c(O)cc1O` [4e-27], for which, in the data set with MRSA strain USA300 [1] (10 μg/mL compound), the hemolysis at 10 µg/mL amounted to 25.2 ± 3%. Also, the activity at 10 µg/mL with MRSA strain USA300 [2] is 105%.

Consider `CCCc1cc(C(=O)COc2ccc(C(=O)OC)cc2)c(O)cc1O` [4e-29], for which the hemolysis at 1 µg/mL in the data set with MRSA strain USA300 [1] (1 μg/mL compound) was 109 ± 17.3%. In the data set on MRSA strain USA300 [1] (10 μg/mL compound), the hemolysis at 10 µg/mL worked out at 3.1 ± 0.1%. In the data set with MRSA strain USA300 [2], the activity at 1 µg/mL amounted to 104% and the activity at 10 µg/mL came to 95.9%.

Compound `CCCCCCc1cc(C(=O)COc2cccc(F)c2)c(O)cc1O` [4f-1] displayed a hemolysis at 1 µg/mL in the data set on MRSA strain USA300 [1] (1 μg/mL compound) of 95.4 ± 1.2%. In the data set with MRSA strain USA300 [1] (10 μg/mL compound), this compound displayed a hemolysis at 10 µg/mL of 9.3 ± 1.11%. Further, in the data set with MRSA strain USA300 [2], the activity at 1 µg/mL came out at 104% and the activity at 10 µg/mL is 106%.

As to `CCCCCCc1cc(C(=O)COc2ccc(I)cc2)c(O)cc1O` [4f-8], the Hemolysis with MRSA strain USA300 [1] (10 μg/mL compound) came out at 25.3 ± 1.9%. In the data set on MRSA strain USA300 [2] (10 μg/mL compound), this compound came in with a Growth of 100.2%.

The compound `CCCCCCc1cc(C(=O)COc2ccc([N+](=O)[O-])cc2)c(O)cc1O` [4f-22] had a Hemolysis in the data set on MRSA strain USA300 [1] (10 μg/mL compound) of 28.0 ± 2.4%. For the same compound, in the data set on MRSA strain USA300 [2] (10 μg/mL compound), the Growth came out at 105.9%.

Turning to `CCCCCCc1cc(C(=O)COc2ccccc2C(=O)OC)c(O)cc1O` [4f-27], the Hemolysis is listed as 72.6 ± 7.0% with MRSA strain USA300 [1] (1 μg/mL compound) and 7.2 ± 0.7% in the data set on MRSA strain USA300 [1] (10 μg/mL compound). Moreover, the values for the Growth in the data set on MRSA strain USA300 [2] (1 μg/mL compound) and with MRSA strain USA300 [2] (10 μg/mL compound) were 99.3% and 92.7%, respectively.

The compound `O=C(O)c1cc(-c2ccc(F)cc2F)ccc1O` [Diflunisal, reference compound] displayed a hemolysis at 1 µg/mL in the data set on MRSA strain USA300 [1] (1 μg/mL compound) of 37 ± 1.1%. The compound further had a hemolysis at 10 µg/mL with MRSA strain USA300 [1] (10 μg/mL compound) of 2.3 ± 0.1%. For the same compound, in the data set on MRSA strain USA300 [2], the activity at 1 µg/mL was 102% and the activity at 10 µg/mL was determined as 100%.

The values above are taken from patent publication US20180021277A1, “ANTI-VIRULENCE COMPOSITIONS AND METHODS” (priority 2012, published 2018).
